Results: the supplement of paper PMC9174493
Some of the results follow. Single values of this set are uncertain. Values with irradiation are relative to irradiated vehicle.

Tests used:
A549-Dual [1] = test: NF-kB reporter (SEAP) activity, viability-corrected, relative to vehicle (fold change vs vehicle); higher = more activation of STING-IRF / NF-kB immune response reporter; conditions: 10 µM
A549-Dual [2] = test: ISRE reporter (Lucia luciferase) activity, viability-corrected, relative to vehicle (fold change vs vehicle); higher = more activation of STING-IRF / NF-kB immune response reporter; conditions: 10 µM
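Throughout, for NF-kB reporter (SEAP) activity, viability-corrected, relative to vehicle: viability correction based on the alamar blue assay, with concentrations leaving 10% survival or less dropped.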

Structure (SMILES) | NF-kB reporter (A549-Dual [1]; irradiation: 8 Gy/4 fr) | NF-kB reporter (A549-Dual [1]; irradiation: none) | ISRE reporter (A549-Dual [2]; irradiation: 8 Gy/4 fr) | ISRE reporter (A549-Dual [2]; irradiation: none)
Cc1ccc(/C=C2\C(=O)C3(C)CCC2C3(C)C)cc1 (stereo unspecified) [4-Methylbenzylidene camphor] | 0.811 | 0.869 | 0.73 | 0.855
CC(O)C1C(=O)N2C(C(=O)O)=C(SC3CNC(CNS(N)(=O)=O)C3)C(C)C12 (stereo unspecified) [Doripenem] | 0.948 | 0.833 | 1.02 | 0.735
COc1cc2c(cc1OC)CC(=O)N(CCCN(C)CC1Cc3cc(OC)c(OC)cc31)CC2.Cl (stereo unspecified) [Ivabradine HCl] | 0.625 | 0.832 | 0.736 | 0.862
CCCCCC(O)/C=C/C1C(O)CC(=O)C1CCCCCCC(=O)O (stereo unspecified) [Alprostadil] | 0.708 | 1.2 | 0.593 | 0.829
CC(C)CN(CC(O)C(Cc1ccccc1)NC(=O)OC1COC2OCCC12)S(=O)(=O)c1ccc(N)cc1 (stereo unspecified) [Darunavir] | 1.02 | 0.93 | 1.07 | 0.883
OCC1OC(Oc2ccc(O)cc2)C(O)C(O)C1O (stereo unspecified) [Arbutin] | 0.92 | 1 | 0.93 | 0.995
O=c1ncn2nc(Sc3ccc(F)cc3F)ccc2c1-c1c(Cl)cccc1Cl | 0.58 | 0.775 | 0.281 | 0.398
O=C1c2c(O)cc(O)cc2OC(c2ccc(O)c(O)c2)C1O (stereo unspecified) [Taxifolin (Dihydroquercetin)] | 0.758 | 0.658 | 0.859 | 0.409
CCCCCCCCCCCCCCCCCCOCC(O)CO (stereo unspecified) [Batyl alcohol] | 0.904 | 0.848 | 0.765 | 0.768
C=C1/C(=C\C=C2/CCCC3(C)C2CCC3C(C)/C=C/C(O)C2CC2)CC(O)CC1O (stereo unspecified) [Calcipotriene] | 0.604 | 0.998 | 0.461 | 1.16
CCN1CCN(C(=O)NC(C(=O)NC2C(=O)N3C(C(=O)[O-])=C(CSc4nnnn4C)CSC23)c2ccc(O)cc2)C(=O)C1=O.[Na+] (stereo unspecified) [Cefoperazone sodium] | 1.09 | 0.775 | 1.08 | 0.62
CC1(C)SC2C(NC(=O)C(C(=O)O)c3ccsc3)C(=O)N2C1C(=O)O.[NaH].[NaH] (stereo unspecified) [Ticarcillin sodium] | 0.84 | 1.12 | 1.1 | 0.834
Cl.Cl.OCCN1CCN(CCCN2c3ccccc3Sc3ccc(C(F)(F)F)cc32)CC1 [Fluphenazine dihydrochloride] | 0.796 | 1.02 | 0.727 | 1.17
CCOc1cc(N)c([N+](=O)[O-])cc1C(=O)NC1CCN(CC2CC=CCC2)CC1.O=C(O)C(O)C(O)C(=O)O (stereo unspecified) [Cinitapride Hydrogen Tartrate] | 0.97 | 0.704 | 1.3 | 1.08
